# According to PubChem BioAssay AID493168 (National Center for Advancing Translational Sciences (NCATS), 2011):
# The inconclusive results got no clear call from the source; some entries with a clear call stand among them for comparison. No potency is given beside an inconclusive call; the fits are too rough. Calls of active or inactive are those of the source. Calls come from the whole dose curve; as a rule, active = well fitted inhibition curve with a large enough effect; inconclusive = small, poorly fitted or top-dose-only effect, or effect the other way; inactive = flat fitted curve, though single readings scatter.
# Target: Ubiquitin carboxyl-terminal hydrolase 2 (Homo sapiens) (UniProt O75604)
# Sequence of UniProt O75604 (O75604 whole entry, looked up): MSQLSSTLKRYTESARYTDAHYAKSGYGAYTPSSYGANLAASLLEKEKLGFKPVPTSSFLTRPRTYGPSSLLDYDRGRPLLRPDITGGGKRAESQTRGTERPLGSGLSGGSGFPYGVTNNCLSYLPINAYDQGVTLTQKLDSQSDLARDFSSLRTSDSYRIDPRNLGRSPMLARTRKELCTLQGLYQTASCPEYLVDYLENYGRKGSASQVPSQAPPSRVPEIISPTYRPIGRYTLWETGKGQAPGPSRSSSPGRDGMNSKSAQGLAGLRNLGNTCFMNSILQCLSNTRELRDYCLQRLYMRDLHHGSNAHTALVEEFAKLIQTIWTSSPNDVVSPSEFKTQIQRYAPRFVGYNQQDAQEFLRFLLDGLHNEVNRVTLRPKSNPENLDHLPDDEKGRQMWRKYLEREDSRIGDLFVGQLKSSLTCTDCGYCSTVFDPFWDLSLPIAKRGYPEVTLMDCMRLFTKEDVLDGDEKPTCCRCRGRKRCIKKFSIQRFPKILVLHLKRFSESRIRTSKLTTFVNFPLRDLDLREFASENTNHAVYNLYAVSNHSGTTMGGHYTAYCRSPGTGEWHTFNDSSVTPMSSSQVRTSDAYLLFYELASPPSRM
# Test: Confirmation Assay for Inhibitors of Ubiquitin-specific Protease USP2a Using CHOP2 as the Reporter; note: nearly all actives have a fitted effect of over 55% in size
# Settings: USP2 core, Ub-CHOP2 coupled reporter fluorescence; series mostly up to 38.3 µM
# Procedure, shortened: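 Ub-CHOP2 cleavage coupled to reporter activation was read by fluorescence after 60 min at RT, with 25 nM final Ub-CHOP2 and substrate. Enzyme (10 nM final USP2 core) first sat 30 min with compound; data were normalized to NEM and fitted to concentration-response curves.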
# Potency is the fitted concentration of half-maximal effect; tags give direction and shape of the fitted curve.
row,SMILES,Potency
1,N#C/C(=C(/O)CSc1nnc(Cc2cccs2)n1C1CCCCC1)c1nc2ccccc2[nH]1,"inconclusive [inhibitor, single point]"
2,O=C(COC(=O)c1ccc(NS(=O)(=O)c2cccs2)cc1)Nc1nc2c(F)c(F)c(F)cc2s1,active: 6.56 µM
3,Cc1ccc(NC(=O)CN2C(=O)N/C(=C/c3ccco3)C2=O)cc1,"inconclusive [inhibitor, single point]"
4,COc1ccc(C(=O)CSc2nnc(-c3ccco3)c(-c3ccco3)n2)cc1,"inconclusive [inhibitor, single point]"
5,C=CC[C@@H](CC(=O)N(CCO)Cc1ccccc1)C(=O)NCCOC(=O)[C@H](CC=C)CC(=O)OC(C)(C)C,inactive
6,C#CCOCCOCCOCCNc1nc(N2CCN(C(=O)CCCCCCCCCCNC(=O)[C@H](CCCCN)n3cc(CCO)nn3)CC2)nc(N2CCN(C(=O)CCCCCCCCCCNC(=O)[C@H](CCCCN)n3cc(C[C@@H](C)CC)nn3)CC2)n1,active: 8.26 µM
7,O=C1N=c2ccccc2=C1c1sc(Nc2ccc(O)cc2)nc1O,"inconclusive [inhibitor, single point]"
8,CCOC(=O)C(C)Sc1nnc(Cn2c(=O)sc3ccccc32)n1-c1ccccc1 (centres undefined),inactive
9,COc1cccc(OC)c1-c1nn2c(-c3cc(-c4ccccc4)n[nH]3)nnc2s1,"inconclusive [inhibitor, single point]"
10,COc1ccc(-c2csc(Nc3ccc(S(=O)(=O)Nc4cc(OC)nc(OC)n4)cc3)n2)cc1,"inconclusive [inhibitor, single point]"
11,Cc1ccc(C)n1NC(=O)c1ccccc1O,inactive
12,Cc1ccc(NC(=O)c2cc3c(=O)oc4ccccc4c3s2)nc1,inactive
13,Cc1cc(N=Nc2ccc(C)c(N=Nc3cc(C)c(N)cc3N)c2)c(N)cc1N,"inconclusive [inhibitor, partial curve, poor fit]"
14,CCCCCCCCCCCCCCCC[n+]1cccc(C(=O)N(CC)CC)c1,"inconclusive [inhibitor, single point]"
15,CN(C)S(=O)(=O)c1cccc(NC(=S)NNC(=O)c2cc3ccccc3cc2O)c1,inactive
16,N#Cc1c(SCC(=O)Nc2nncs2)sc2c(O)cc(=O)[nH]c12,"inconclusive [inhibitor, partial curve, poor fit]"
17,CCC(C)NC(=O)C1CN(S(=O)(=O)c2ccccc2)CCN1S(=O)(=O)c1ccccc1 (centres undefined),inactive
18,COc1c(/C=C2\SC(=Nc3ccccc3Cl)NC2=O)cccc1[N+](=O)[O-],"inconclusive [inhibitor, partial curve, poor fit]"
19,O=[N+]([O-])c1ccc2nc(C(O)C(O)c3nc4ccc([N+](=O)[O-])cc4[nH]3)[nH]c2c1 (centres undefined),"inconclusive [inhibitor, single point]"
20,CC(C)(C)CC(C)(C)c1ccc(OCCOCC[N+](C)(C)Cc2ccccc2)cc1,"inconclusive [inhibitor, single point]"

row,SMILES,Potency
1,Cc1ccc([C@@H]2CC=C(C(=O)O)[C@H](c3cccc(Cl)c3)N2S(=O)(=O)c2ccc(C)cc2)cc1,"inconclusive [inhibitor, single point]"
2,COc1ccc(-c2nc3cc(NC(=O)Cc4ccc(OC)c(OC)c4)ccc3o2)cc1,"inconclusive [inhibitor, single point]"
3,CC(C)(C)CC(C)(C)NCC(=O)Nc1c2c(nc3ccccc13)CCC2,"inconclusive [inhibitor, partial curve, poor fit]"
4,CC1(C)Cc2c(C#N)c(N3CCN(C(=O)c4ccco4)CC3)nc(-c3ccco3)c2CS1,"inconclusive [inhibitor, single point]"
5,Cc1ccc(CSC2=Nc3ccccc3C3=NC(CC(=O)NCc4ccco4)C(=O)N23)cc1 (centres undefined),"inconclusive [inhibitor, single point]"
6,CCOC(=O)c1ccc(NC(=O)C2=C(C)Nc3nc(CCCO)nn3C2c2cccc(C)c2)cc1 (centres undefined),inactive
7,Cc1noc(NS(=O)(=O)c2ccc(N/C=C\C(=O)c3cccc4ccccc34)cc2)c1C,"inconclusive [inhibitor, single point]"
8,CCC(CO)Oc1cc(NCc2cccc(C)c2)c2ncn(C(C)C)c2c1 (centres undefined),inactive
9,Cn1c(=O)c(C(=O)Nc2ccccc2S(N)(=O)=O)c(O)c2ccccc21,active: 14.7 µM
10,CCc1c(O)nc(SCC(=O)Nc2ccccc2OC)[nH]c1=O,inactive
11,C#CCOCCOCCOCCNc1nc(N2CCN(C(=O)CCCCCCCCCCNC(=O)[C@H]([C@@H](C)CC)n3cc(CCCCCN)nn3)CC2)nc(N2CCN(C(=O)CCCCCCCCCCNC(=O)[C@H](CCCCN)n3cc(CCCC(=O)O)nn3)CC2)n1,active: 13.1 µM
12,COc1ccc(/C=N\NC(=O)c2cc(O)c(O)c(O)c2)cc1COc1ccc(C(=O)OCC(C)C)cc1,active: 14.7 µM
13,Cc1ccc(N=C2NC(=O)/C(=C/C=C/c3ccco3)S2)cc1C,"inconclusive [inhibitor, single point]"
14,CCCOc1ccc(-c2nc(C#N)c(N3CCN(CC)CC3)o2)cc1,inactive
15,CCCCC(CC)CN=C(N)NC(N)=NCCCCCCN=C(N)NC(N)=NCC(CC)CCCC (centres undefined),active: 4.65 µM
16,Cc1c(NC(=O)C2CCCN2S(=O)(=O)c2ccc(Cl)cc2)c(=O)n(-c2ccccc2)n1C (centres undefined),inactive
17,O=C(Nc1nnc(SCC(=O)N2CCCC2)s1)C1CC(=O)N(c2ccc(F)cc2)C1 (centres undefined),"inconclusive [inhibitor, partial curve, poor fit]"
18,O=c1c2c3nc4ccccc4nc3n(Cc3ccccc3)c2ncn1Cc1ccco1,"inconclusive [inhibitor, single point]"
19,O=C(/C=C/c1ccc(O)c(O)c1)c1ccc(S(=O)(=O)N2CCCCCC2)cc1,"inconclusive [inhibitor, single point]"
